Measured values as given in the supplement of paper PMC8728848.
Some of the results follow.

Experiments:
Experiment in all cases: glycan array binding signal (z-score within array); higher = stronger binding
Settings in all cases: glycan notation: IUPAC condensed, linker removed
GlcNAc(b1-4)GlcNAc = molecular target: GlcNAc(b1-4)GlcNAc
How it was run: (§1)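 Glycan array data were curated from 3228 arrays in the Consortium for Functional Glycomics database and kept only where the protein sequence was available. Glycan names were converted to IUPAC-condensed notation, and columns mapping to the same glycan were averaged. The binding signal is a within-array Z-score, averaged across arrays of the same protein sequence at different concentrations or buffers and across linkers. Negative Z-scores can be read as non-binding.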

[1] = molecular target: GlcNAc(b1-4)GlcNAc(b1-4)GlcNAc
How it was run: as §1

[2] = molecular target: GlcNAc(b1-4)GlcNAc(b1-4)GlcNAc(b1-4)GlcNAc(b1-4)GlcNAc
How it was run: as §1

[3] = molecular target: GlcNAc(b1-4)GlcNAc(b1-4)GlcNAc(b1-4)GlcNAc(b1-4)GlcNAc(b1-4)GlcNAc
How it was run: as §1

[4] = molecular target: GlcNAc(b1-4)[GlcNAc(b1-6)]GalNAc
How it was run: as §1

[5] = molecular target: GlcNAc(b1-6)Gal(b1-4)GlcNAc
How it was run: as §1

GlcNAc(b1-6)GalNAc = molecular target: GlcNAc(b1-6)GalNAc
How it was run: as §1

GlcNAc3Prop(b1-4)GlcNAc = molecular target: GlcNAc3Prop(b1-4)GlcNAc
How it was run: as §1

[6] = molecular target: GlcNAc6S(b1-3)Gal(b1-4)GlcNAc
How it was run: as §1

Kdn(a2-3)Gal(b1-3)GalNAc = molecular target: Kdn(a2-3)Gal(b1-3)GalNAc
How it was run: as §1

Kdn(a2-3)Gal(b1-3)GlcNAc = molecular target: Kdn(a2-3)Gal(b1-3)GlcNAc
How it was run: as §1

Kdn(a2-3)Gal(b1-4)Glc = molecular target: Kdn(a2-3)Gal(b1-4)Glc
How it was run: as §1

Kdn(a2-3)Gal(b1-4)GlcNAc = molecular target: Kdn(a2-3)Gal(b1-4)GlcNAc
How it was run: as §1

[7] = molecular target: Kdn(a2-3)Gal(b1-4)[Fuc(a1-3)]GlcNAc
How it was run: as §1

Kdn(a2-6)Gal(b1-4)GlcNAc = molecular target: Kdn(a2-6)Gal(b1-4)GlcNAc
How it was run: as §1

[8] = molecular target: Man(a1-2)Man(a1-2)Man(a1-3)Man
How it was run: as §1

[9] = molecular target: Man(a1-2)Man(a1-2)Man(a1-6)[Man(a1-3)]Man
How it was run: as §1

Man(a1-2)Man(a1-3)Man = molecular target: Man(a1-2)Man(a1-3)Man
How it was run: as §1

[10] = molecular target: Man(a1-2)Man(a1-3)[Man(a1-2)Man(a1-6)]Man
How it was run: as §1

[11] = molecular target: Man(a1-2)Man(a1-3)[Man(a1-2)Man(a1-6)]Man(a1-6)[Man(a1-2)Man(a1-2)Man(a1-3)]Man
How it was run: as §1

[12] = molecular target: Man(a1-2)Man(a1-3)[Man(a1-2)Man(a1-6)]Man(a1-6)[Man(a1-2)Man(a1-2)Man(a1-3)]Man(b1-4)GlcNAc(b1-4)GlcNAc
How it was run: as §1

[13] = molecular target: Man(a1-2)Man(a1-3)[Man(a1-6)]Man(a1-6)[Man(a1-2)Man(a1-3)]Man(b1-4)GlcNAc(b1-4)GlcNAc
How it was run: as §1

[14] = molecular target: Man(a1-2)Man(a1-6)[Man(a1-3)]Man(a1-6)[Man(a1-2)Man(a1-2)Man(a1-3)]Man
How it was run: as §1

[15] = molecular target: Man(a1-2)Man(a1-6)[Man(a1-3)]Man(a1-6)[Man(a1-2)Man(a1-2)Man(a1-3)]Man(b1-4)GlcNAc(b1-4)GlcNAc
How it was run: as §1

Man(a1-3)[Man(a1-6)]Man = molecular target: Man(a1-3)[Man(a1-6)]Man
How it was run: as §1

[16] = molecular target: Man(a1-3)[Man(a1-6)]Man(a1-6)[Man(a1-2)Man(a1-3)]Man(b1-4)GlcNAc(b1-4)GlcNAc
How it was run: as §1

[17] = molecular target: Man(a1-3)[Man(a1-6)]Man(a1-6)[Man(a1-3)]Man
How it was run: as §1

[18] = molecular target: Man(a1-3)[Man(a1-6)]Man(a1-6)[Man(a1-3)]Man(b1-4)GlcNAc(b1-4)GlcNAc
How it was run: as §1

[19] = molecular target: Man(a1-3)[Man(a1-6)]Man(b1-4)GlcNAc(b1-4)GlcNAc
How it was run: as §1

Man(a1-6)Man = molecular target: Man(a1-6)Man
How it was run: as §1

Man(b1-4)GlcNAc = molecular target: Man(b1-4)GlcNAc
How it was run: as §1

Neu5Ac(a2-3)Gal = molecular target: Neu5Ac(a2-3)Gal
How it was run: as §1

[20] = molecular target: Neu5Ac(a2-3)Gal(b1-3)GalNAc
How it was run: as §1

[21] = molecular target: Neu5Ac(a2-3)Gal(b1-3)GalNAc(b1-3)Gal(a1-4)Gal(b1-4)Glc
How it was run: as §1

[22] = molecular target: Neu5Ac(a2-3)Gal(b1-3)GalNAc(b1-3)Gal(b1-4)GlcNAc
How it was run: as §1

[23] = molecular target: Neu5Ac(a2-3)Gal(b1-3)GalNAc(b1-4)[Neu5Ac(a2-3)]Gal(b1-4)Glc
How it was run: as §1

[24] = molecular target: Neu5Ac(a2-3)Gal(b1-3)GalNAc6S
How it was run: as §1

[25] = molecular target: Neu5Ac(a2-3)Gal(b1-3)GlcNAc
How it was run: as §1

[26] = molecular target: Neu5Ac(a2-3)Gal(b1-3)GlcNAc(b1-3)Gal(b1-3)GlcNAc
How it was run: as §1

[27] = molecular target: Neu5Ac(a2-3)Gal(b1-3)GlcNAc6S
How it was run: as §1

[28] = molecular target: Neu5Ac(a2-3)Gal(b1-3)[Fuc(a1-4)]GlcNAc
How it was run: as §1

[29] = molecular target: Neu5Ac(a2-3)Gal(b1-3)[Fuc(a1-4)]GlcNAc(b1-3)Gal(b1-3)[Fuc(a1-4)]GlcNAc
How it was run: as §1

[30] = molecular target: Neu5Ac(a2-3)Gal(b1-3)[Fuc(a1-4)]GlcNAc(b1-3)Gal(b1-4)[Fuc(a1-3)]GlcNAc
How it was run: as §1

[31] = molecular target: Neu5Ac(a2-3)Gal(b1-3)[Neu5Ac(a2-3)Gal(b1-4)]GlcNAc
How it was run: as §1

[32] = molecular target: Neu5Ac(a2-3)Gal(b1-3)[Neu5Ac(a2-6)]GalNAc
How it was run: as §1

B1: MRCL (Homo sapiens), NP_872425.1 (protein)
chain: ATKVHFPFHTCDLRIDGDCFMVSSEADTYYRARMKCQRKGGVLAQIKSQKVQDILAFYLGRLETTNEVTDSDFETRNFWIGLTYKTAKDSFRWATGEHQAFTSFAFGQPDNHGLVWLSAAMGFGNCVELQASAAFNWNNQRCKTRNRYICQFAQEHISRWGPGS
GlcNAc(b1-4)GlcNAc
  glycan array binding signal (z-score): -0.233
[1]
  glycan array binding signal (z-score): -0.601
[2]
  glycan array binding signal (z-score): 0.255
[3]
  glycan array binding signal (z-score): -0.634
[4]
  glycan array binding signal (z-score): -0.523
[5]
  glycan array binding signal (z-score): -0.346
GlcNAc(b1-6)GalNAc
  glycan array binding signal (z-score): -0.538
GlcNAc3Prop(b1-4)GlcNAc
  glycan array binding signal (z-score): -0.643
[6]
  glycan array binding signal (z-score): -0.552
Kdn(a2-3)Gal(b1-3)GalNAc
  glycan array binding signal (z-score): -0.486
Kdn(a2-3)Gal(b1-3)GlcNAc
  glycan array binding signal (z-score): -0.398
Kdn(a2-3)Gal(b1-4)Glc
  glycan array binding signal (z-score): -0.43
Kdn(a2-3)Gal(b1-4)GlcNAc
  glycan array binding signal (z-score): -0.21
[7]
  glycan array binding signal (z-score): 0.401
Kdn(a2-6)Gal(b1-4)GlcNAc
  glycan array binding signal (z-score): -0.606
[8]
  glycan array binding signal (z-score): -0.351
[9]
  glycan array binding signal (z-score): 0.135
Man(a1-2)Man(a1-3)Man
  glycan array binding signal (z-score): -0.716
[10]
  glycan array binding signal (z-score): 0.071
[11]
  glycan array binding signal (z-score): -0.582
[12]
  glycan array binding signal (z-score): 1.73
[13]
  glycan array binding signal (z-score): -0.446
[14]
  glycan array binding signal (z-score): 0.021
[15]
  glycan array binding signal (z-score): -0.551
Man(a1-3)[Man(a1-6)]Man
  glycan array binding signal (z-score): -0.711
[16]
  glycan array binding signal (z-score): -0.572
[17]
  glycan array binding signal (z-score): -0.611
[18]
  glycan array binding signal (z-score): 0.94
[19]
  glycan array binding signal (z-score): -0.585
Man(a1-6)Man
  glycan array binding signal (z-score): 0.948
Man(b1-4)GlcNAc
  glycan array binding signal (z-score): -0.638
Neu5Ac(a2-3)Gal
  glycan array binding signal (z-score): -0.532
[20]
  glycan array binding signal (z-score): -0.601
[21]
  glycan array binding signal (z-score): 0.396
[22]
  glycan array binding signal (z-score): -0.66
[23]
  glycan array binding signal (z-score): -0.674
[24]
  glycan array binding signal (z-score): -0.071
[25]
  glycan array binding signal (z-score): -0.312
[26]
  glycan array binding signal (z-score): -0.295
[27]
  glycan array binding signal (z-score): -0.562
[28]
  glycan array binding signal (z-score): 0.257
[29]
  glycan array binding signal (z-score): -0.766
[30]
  glycan array binding signal (z-score): -0.284
[31]
  glycan array binding signal (z-score): 0.239
[32]
  glycan array binding signal (z-score): 0.119
